Our source for the self-cleavage values is the RNAGym collection of RNA variant scans (doi:10.7554/elife.90254).

The chains are these.
B1: OR4K15 (parent)
chain: GUUAACGGUCAUAGGCCAUGGAAACUAGGAGCACCAUUUCGCUGCCAGUGAAGAAAUGAACAAAGAAAAUCUGGGCCAGGCAGGCAUCAAAAGAAAUAGUCUUGCGCUCAACCAGAAAGUCUGUAAUCAUUUUAAGGGUA

The source gives no read counts; variants with many changes may rest on few reads.

This data set covers variants of B1. Description: self-cleavage, relative activity (ratio to wild type); higher = more cleavage; in vitro, sequencing; the parent is a self-cleaving ribozyme.
For A36G A90G A117G, the self-cleavage was found to be 2.44.
Consider A36G A98G U100C, for which the self-cleavage is 2.37.
For A33G C40A G44A U100C the value was 1.55; for U37C A54C A60G, 1.82.
Regarding A36U A56U U132C, the self-cleavage amounted to 2.22.
For A36G A63G U132C the value was 1.95.
A36G A47G A52G A92G: the self-cleavage turned out to be 0.91.
The value for U37C A47U A62G A95U U124A was 0.28; that for A36G A69G A96U U103A was 0.49; that for A33G C105A U127C U131C U139C was 0.
For A36U A98G G137C the value was 1.15; for A36U U108C A110U A118U, 0.
As for A36G A60G A68G, the self-cleavage is 2.12.
Consider A33G A56G A68G U72A A78U A92G U133C, for which the self-cleavage was 0.08.
A36U A64G U87A: the self-cleavage was found to be 1.79.
As to A36G A114G A116G A118G, the self-cleavage turned out to be 0.12.
For A33G A66G U127C A135U U139C the value was 0.24; for A33G C40U A140G, 0.25; for A33G A62G U103A, 0.63.
For A33G A63G A129U the value was 1.08; for A33U U49C A117G, 2.1.
In the case of A36U A56G A68G U97C U120A, the self-cleavage turned out to be 0.15.
As for A33G A69G C112U, the self-cleavage worked out at 0.01.
Regarding A36G A86G U102C, the self-cleavage came to 1.56.
On to A33G A60G A69G U108C A118G, for which the self-cleavage amounted to 0.02.
With U37C A59G A60G U72A A91G A117U, the self-cleavage is 0.18.
Consider A36G A129G U139C, for which the self-cleavage worked out at 1.46.
U37C A54G A67U A125G: the self-cleavage was found to be 0.79.
The value for A33U A62G U127C was 0.21; that for A33U A67G A82G was 0.57.
For A36U A95G G123A, the self-cleavage came out at 1.65.
For A36U A62G A86G A118G the value was 1.26; for A33G U49G G80A A89G U131C, 0.22; for C34U A54U A95G A126G, 1.22.
As to A36G U43C U49C A56G U100C A129C, the self-cleavage was 1.44.
For A36U G74U U108A the value was 0.02; for A33G A78U U130C, 0.09.
For A36G U70C U132C, the self-cleavage amounted to 0.54.
For A33G U108C A110U A125G the value was 0; for A33U A94U U97C U127C, 0.54; for A33G A63G U87C, 0.73.
In the case of A36G A91U A110G U124C G138U, the self-cleavage worked out at 0.06.
A33U A78U U102C: the self-cleavage stood at 1.52.
The value for A36G U49C A62C A67G U131C was 1.34; that for U37C A64G U87C U122C was 1.8.
For A33G C40U A59G G80A the value was 0.08; for A36U A52U A116U U122C, 0.18; for A33G G65U G115A, 0.05.
As to A33G U38C A67U G115A U131C, the self-cleavage turned out to be 0.04.
The value for C35A U38C A63G was 1.87.
The value for A33G A67G A134U was 0.94.
The value for A36C A59G A95C U131C was 0.62.
As to A36G A60G A62G U120C, the self-cleavage was 0.54.
With A36G A52U C88U A98U A126G, the self-cleavage was 1.09.
Consider A36U A56G A62G A78C, for which the self-cleavage was determined as 0.47.
A33G A63U A90G A118U U120A: the self-cleavage was 0.2.
As for A33G U37C A96G, the self-cleavage stood at 0.66.
The value for A33G A64U A91G was 0.62; that for A36C A66U A95G U97C was 1.28; that for A36G U87C G104A was 0.02.
For A36U A56G A68G A126U U130C, the self-cleavage came to 0.94.
As to A36G A118G U139G, the self-cleavage turned out to be 1.14.
As to A33G G50A A91G, the self-cleavage turned out to be 0.77.
As for A33G G44A A82U A116G, the self-cleavage came out at 0.03.
Turning to A36U U43C A86C U132C, the self-cleavage stood at 1.5.
The value for A33G U37C A60G was 0.92.
Consider A36G A54G A69G U70C, for which the self-cleavage is 0.36.
For U37C A54G G58A the value was 1.71; for A36G U100C A111G, 0.02; for A36G A62G A64G U132C, 1.96.
Take A36C A67G A86G: the self-cleavage is 1.68.
In the case of A36U U38C A59U A110G, the self-cleavage is 0.27.
For U37C A51G A86U the value was 1.43.
For A36G A91G A95G U120A the value was 2.91; for A33G U37C A92G A96U, 0.4.
On to A36G A114G A129G, for which the self-cleavage came out at 0.25.
The value for A36C A67G U122C A135G was 1.33; that for A33G A59G A60G U87C G93U was 0.82; that for A33U A52U A59G A68G U87C A96G was 2.04.
The value for A36U A82G A111G A140G was 0; that for C34U A52G A91G U100C was 2.64.
For A33U A110U A117G the value was 1.34; for U37C A60G G83U A94G U130C, 0.38; for A36C U38C A94G U103C, 0.38.
Take C35U A54U A91G A94G U131C U139C: the self-cleavage was determined as 0.88.
For A33G U49C U124C the value was 0.33; for U37C A60U A69G U122C, 1.1; for A36G A116G U124C U133C, 0.28.
Consider A33U A67U A96G, for which the self-cleavage amounted to 2.31.
Turning to A36U A47G A91G A117G A129U, the self-cleavage came out at 0.15.
The value for A36U U37C G50A was 1.79; that for U37A U38A U72A was 0.17; that for U37C A63G A114G was 0.56.
For U37C A47G U100C the value was 2.13.
As to C34U A64G U131A, the self-cleavage was 1.39.
For the variant A36U A51G U130C, the self-cleavage is 1.72.
The value for A36U A64G A94G was 0.84; that for A36G U39C A60G G79A C112A was 0.02; that for A33G A91G A94G A117G was 0.83.
For U37C A54G A60G A62U A68G U122C U132A the value was 0.29; for U37C A63G A86G U97C, 0.54; for A33U A78U A96G A126G, 0.21.
The value for A36U U70C A95G was 0.86; that for A36G A54G A98G U100C U108C U132C was 0; that for A33U U49C U132A was 2.09.
Regarding A36U G83U U124C, the self-cleavage came out at 0.51.
On to C34U U122A U127C, for which the self-cleavage is 1.11.
Turning to A33G U39A A82U, the self-cleavage amounted to 0.04.
For the variant A36U A52G A135G, the self-cleavage was 2.14.
For C34A U122C U139C the value was 0.
For A33U A60G U132C the value was 0.8; for A36G A47G U103C U132C, 0.64.
The value for A36U A52G A78G U122C was 0.11.
In the case of A36U A55G U127C, the self-cleavage was 1.78.
For the variant A33G U37A U100A, the self-cleavage was 0.77.
For A33U U38C U39C A63G A64G G74U A78U A94G U132A the value was 0.2.
The value for A36G A63G A96G was 1.84; that for A33G A86C A111U was 0.02.
For U37C A55U A66G the value was 2.07.
For U37A A60G A91G U124G U131C, the self-cleavage amounted to 0.41.
For U37A A52G A56G G119C the value was 1.68.
On to A33G U72A A110G U127A, for which the self-cleavage stood at 0.04.
For A36G C40A G44A A60U A86G the value was 1.63; for C35A A89G A92G U108C A117G, 0.
Consider A36U A54U A86U C128U, for which the self-cleavage came to 1.86.
On to A33G A91G U120C U131A A140G, for which the self-cleavage amounted to 0.31.
For U37C A47U A95G the value was 1.42.
U37C A56G U72C U87C: the self-cleavage was 0.34.
For A36U A78G G115A the value was 0.12; for A33G A90G A94U U122C, 0.17.
In the case of U37C A51G A96G A117U, the self-cleavage was determined as 1.5.
For C35U A59G A94G A110G the value was 0.04.
For A36G U87C A92G U124C the value was 0.68.
Consider A36U U38C A67G A89C A92G C113U U120G, for which the self-cleavage worked out at 0.04.
Take U37C A59G A67G U120C: the self-cleavage was 0.84.
The value for A36G U87C A135G was 1.62; that for A33G U37C U49C U122C was 0.33; that for U37A A55U U103A U130C was 0.39.
As for A36U A55U A64G, the self-cleavage worked out at 1.26.
For U37C A60G G104A U130C the value was 0.02; for A36G A60G A89G A92G G136A, 2.21.
A36G A56G U72C A78G A125U: the self-cleavage stood at 0.23.
As for C35U A51C A82U G83A A95U, the self-cleavage turned out to be 0.04.
As to U37A A52U A55G U57C U132C, the self-cleavage is 0.75.
Regarding A36C A63U U124C, the self-cleavage stood at 2.22.
For A33G A111U U122A the value was 0.02; for A33U U87C A126G, 0.38.
A36C U38C A94G A135G: the self-cleavage came to 2.4.
For the variant A33G A89G U108C A117G, the self-cleavage is 0.
For the variant C35U U39A A111G A126G, the self-cleavage is 0.
A33G A66G U72C A140G: the self-cleavage is 0.25.
For A33G U57C C113U the value was 0.03; for A36G U49C A56G A67G, 1.01.
The value for U37A U39C G41A A51G U57C A66G U102C was 1.92; that for U37C A60G A126C was 1.05; that for C35U U37C A60G was 1.49.
For A33G U38C A59U U122A A140U the value was 1.92; for C34U A117G U131C, 1.15; for A36G A91G A114U, 0.05.
A36U U39G U70C: the self-cleavage was determined as 1.17.
As to A36G A89G U122A, the self-cleavage was found to be 1.64.
Turning to A36G U87C U97A U120A, the self-cleavage was 1.57.
In the case of A36G A89G A126G A129G, the self-cleavage amounted to 0.41.
For A33U A59U A69G C76A the value was 0.07.
The value for A33G U49C A89G U100C was 2.24.
Regarding A36G G44A A90G A96G A116G, the self-cleavage is 0.21.
Turning to A33U A92G A118U, the self-cleavage was found to be 0.72.
